Data on 1 molecule can be found in US20100111965A1, “COMBINATION THERAPY” (FUSION ANTIBODIES LIMITED, priority 2006, published 2010).

The test system of one test is HCT116 cells. In words: MTT assay, HCT116 cell proliferation. The test is classed as cell-based, human. The settings on record: HB-EGF siRNA 50 nM; for RI value (Sexp/Sobs), antibody in combination with HBEGF siRNA: 72 hr. How it is done:
FIG. 8 illustrates HCT116 cell proliferation following AREG/HB-EGF silencing by siRNA and/or Chemotherapy treatment. Cells were transfected with AREG siRNA (10 nM), HB-EGF siRNA (10 nM) or a control siRNA (10 nM). […] Cell proliferation was analysed by MTT assay 48 hr after transfection/chemotherapy
FIG. 28 illustrates HCT116 cell proliferation after treatment with AREG antibody. Cell proliferation was analysed by MTT assay 48 hr after treatment.
FIG. 30 illustrates HCT116 cell proliferation after treatment with AREG antibody. Cell proliferation was analysed by MTT assay 48 hr after treatment.
FIG. 31 illustrates HCT116 cell proliferation after treatment with AREG antibody. Cell proliferation was analysed by MTT assay 48 hr after treatment
FIG. 33 illustrates HCT116 cell proliferation following HB-EGF silencing by siRNA and/or treatment with Anti AREG antibodies (6E11 1E92D8 & 6E11 1E9 106). Cells were transfected with HB-EGF siRNA (50 nM) or a control siRNA (50 nM). Cell proliferation was analysed by MTT assay 72 hr after transfection.
Cells were seeded at 5000 cells per well in a 96 well plate or 5×10^5 cells per well in a 6 well plate. The cells were cultured for 24 hours before transfection. The siRNA was made up to 100 nM in serum free DMEM and left for 5 minutes at room temperature. The Dharmafect transfection reagent was also made up in the serum free DMEM and incubated for 5 minutes at room temperature. The transfection reagent was added to the siRNA and incubated at room temperature for 20 minutes. The media was removed from the plate wells and antibiotic free DMEM was added to the wells. After 20 minutes the siRNA was added dropwise to the wells. The plates were incubated at 37° C. for 48 hours.
Cell viability was assessed by 3-(4,5-dimethylthiazol-2-yl)-2,5-diphenyltetrazolium bromide (MTT, Sigma) assay (Mosmann, T. 1983. J. Immunol. Methods 65:55-63). To assess chemotherapy/siRNA interactions 5000 cells were seeded per well on 96 well plate. […] Cell viability was determined by reading the absorbance of each well at 570 nm using a microplate reader (Tecan Sunrise, Biorad, UK).

The subject of another test is H460 lung carcinoma cell. Description: MTT assay, H460 lung carcinoma cell proliferation. In kind it is cell-based. The settings on record: 25 nM, 50 nM or 100 nM antibody, 48 hours, against isotypic control antibody. How it is done: FIG. 32 illustrates H460 lung carcinoma cell proliferation following treatment with different concentrations of AREG (6E11 1E9 106) antibody or an isotype control antibody. Cells were seeded 24 hours before treatment with either 25 nM, 50 nM or 100 nM antibody. Cell viability was assayed 48 hours after treatment by MTT assay.
Cell viability was assessed by 3-(4,5-dimethylthiazol-2-yl)-2,5-diphenyltetrazolium bromide (MTT, Sigma) assay (Mosmann, T. 1983. J. Immunol. Methods 65:55-63). To assess chemotherapy/siRNA interactions 5000 cells were seeded per well on 96 well plate. After 24 hours cells were transfected with siRNA and treated with various chemotherapeutic agents at different concentrations. After 48 hours MTT (1.0 mg/ml) was added to each well and cells were incubated at 37° C. for 2 hours. The culture media was removed and formazan crystals were reabsorbed in 200 μl DMSO. Cell viability was determined by reading the absorbance of each well at 570 nm using a microplate reader (Tecan Sunrise, Biorad, UK).
In general terms: Tetrazolium assays rely on reduction of a dye to a coloured formazan, in cell work by metabolically active cells.

B1: 6E11 1E9 106: murine anti-AREG monoclonal antibody; VH Sequence ID No: 27, VL Sequence ID No: 28; 6E11 1E92D8 shown to be the same antibody (antibody, listed as Mus sp.)
VH: MECNWILPFILSVTSGVYSQVQLQQSGAELARPGASVKLSCKASGYTFTRYWMQWIKQRPGQGLEWIGAIYPGNGDIRYTQKFKGKATLTADKSSSTAYMQLSSLASEDSAVYYCARGTTPSSYWGQGTLVTVSAAKTTAPSVYPLAPVCGDTTGSSVTLGCLVKGYF
light: MMSPAQFLFLLVLWIRETSGDVVMTQTPLTLSVSIGQPASISCKSSQSLLDSDGKTYLNWLLQRPGQSPKRLIYLVSKLDSGVPDRFTGSGSGTDFTLKISRVEAEDLGVYYCWQGTHFPWTFGGGTKLEIKRADAAPTVSIFPPSSEQLTSGGASVVCFLNNFYPK
For B1, the “reduction in cell growth (MTT), HBEGF siRNA and/or AREG antibody” value with HCT116 cells (72 hr after transfection) is about 50%. For the same molecule, the “RI value (Sexp/Sobs), antibody in combination with HBEGF siRNA” value in the test on HCT116 cells (synergism defined as RI>1) was “above 5”; with HCT116 cells (synergism defined as RI>1, listed as 6E11 1E92D8), “approximately 2”. Moreover, in the test on H460 lung carcinoma cell, the “cell viability (MTT), AREG antibody” value is given as “significantly attenuates cell viability”.
